Assay results as given in PubChem BioAssay AID445 (National Center for Advancing Translational Sciences (NCATS), 2006).
Values joined by “and” are separate entries in the source; they are usually repeats but may differ in a detail not shown here. Identical values can stand only once. Among all 110,000 compounds or so, about 40 (0.04%) were called active. This list was built around the results that the source calls inconclusive (neither active nor inactive); the mix of calls is not that of the screen. The call rests on the fitted dose curve; in most records, active means well fitted curve in the direction sought with a large enough effect in the signal ratio (not every such curve was filed as active); inconclusive means small, poorly fitted or top-dose-only effect, or a change in a side signal; inactive means flat fitted curve, though single readings scatter; the % refers to the signal ratio. Potencies of inconclusive entries are doubtful fits and often do not repeat.

Assay: IkB Signaling;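 on IkBa stabilization activation: 0% = basal untreated cells and 100% = reference inhibitor full response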
Settings: ABC-DLBCL IkBa-CBG/CBR dual luciferase ratio (green luciferase fused to IkBa over red control in OCI-Ly3 lymphoma cells), 4 h, scaled: untreated 0%
Method in brief: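 In this assay, an IκBα–CBG68 fusion accumulates when IKK-driven degradation is blocked; native CBR normalizes for cell number. OCI-Ly3 cells were treated 4 h with compound and doxycycline, then green and red light read after Chroma-Glo addition.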

[1] = IkBa stabilization activation: at 57.1 µM (top of the series), proteasome inhibitor 100% unless noted
Potency means the concentration at half of the fitted maximal effect.

## CC(C)[C@]1(NC(=O)[C@H]2C=C3c4cccc5[nH]cc(c45)C[C@H]3N(C)C2)O[C@@]2(O)[C@H]3CCCN3C(=O)[C@H](Cc3ccccc3)N2C1=O
[1]
  IkBa stabilization activation: inactive: -1.23% [at 11.4 µM, scaled: untreated 0%, proteasome inhibitor 100%]

## CCCCCCCCC(=O)NCc1ccc(O)c(OC)c1
[1]
  IkBa stabilization activation: inactive

## COC(=O)CSC1=NP(=S)(SCC(=O)OC)N2CCCC2=C1C#N (configuration not stated)
[1]
  IkBa stabilization activation: inconclusive: 2.47% [signal inhibitor]

## c1ccc2c(CCNCc3ccc4c(c3)OCO4)c[nH]c2c1
[1]
  IkBa stabilization activation: inactive

## COc1cc2c(cc1OC)[C@]13CC[N@+]4(C)CC5=CCO[C@H]6CC(=O)N2[C@@H]1[C@@H]6[C@@H]5C[C@]34O
[1]
  IkBa stabilization activation: inactive: -0.303% [at 11.4 µM, scaled: untreated 0%, proteasome inhibitor 100%]

## Oc1ccc(Br)cc1CN1CCN(c2ccccc2)CC1
[1]
  IkBa stabilization activation: inactive

## COC(=O)Nc1cccc(OC(=O)Nc2cccc(C)c2)c1
[1]
  IkBa stabilization activation: inactive

## O=S1(=O)N(CCN2CC=C(c3c[nH]c4cc(F)ccc34)CC2)c2cccc3c2N1CCC3
[1]
  Potency: inconclusive: 31.6 µM [rising, partial curve]

## N#CC(C#N)=Cc1ccc([N+](=O)[O-])c(O)c1
[1]
  Potency: inconclusive: 12.6 µM [rising, full curve, poor fit]

## O=C1CC(c2ccc(Br)cc2)c2c(c3ccccc3oc2=O)O1 (configuration not stated)
[1]
  IkBa stabilization activation: inconclusive: -0.114% [signal activator]

## O=C(CCCN1CCC2(CC1)C(=O)N(Cc1cccc(F)c1)CN2c1ccccc1)c1ccc(F)cc1
[1]
  IkBa stabilization activation: inconclusive: -0.721% [signal inhibitor]

## O=C1CN(C(=O)CN2CCCCC2)C(c2ccccc2)c2cc(Br)ccc2N1 (configuration not stated)
[1]
  IkBa stabilization activation: inconclusive: 0.536% [signal inhibitor]

## CN1[C@@H]2CC[C@H]1CC(OC(c1ccc(F)cc1)c1ccc(F)cc1)C2 (some centres not stated)
[1]
  IkBa stabilization activation: inconclusive: -0.0481% [signal inhibitor]

## O=C(Nc1ccon1)c1cccn(Cc2cccc(Cl)c2)c1=O
[1]
  IkBa stabilization activation: inconclusive: 8.51% [signal inhibitor]

## Cc1oc(-c2ccc(Cl)cc2)nc1CN1C(=O)CN=C(c2ccccc2)c2ccccc21
[1]
  IkBa stabilization activation: inconclusive: 0.845% [signal inhibitor]

## Cc1cccc(NC(=O)Cn2cc(C(=O)c3ccccc3)c3ccccc32)c1C
[1]
  IkBa stabilization activation: inconclusive: 13.4% [signal inhibitor]

## O[C@@H](Cc1ccncc1)C(Cl)(Cl)Cl
[1]
  IkBa stabilization activation: inactive

## CNC[C@H](O)c1ccc(O)cc1
[1]
  IkBa stabilization activation: inactive

## O=c1[nH]c2ccccc2c(=O)n1-c1ccc(Cl)c(Cl)c1
[1]
  Potency: inconclusive: 3.16 µM [signal inhibitor, partial curve]

## CN1CCN(c2ccc3ccccc3n2)CC1
[1]
  IkBa stabilization activation: inactive

## CCC(=O)O[C@H]1CC[C@H]2[C@@H]3CCC4=CC(=O)CC[C@]4(C)[C@H]3CC[C@]12C
[1]
  IkBa stabilization activation: inactive

## Cc1ccccc1Cn1cccc(C(=O)Nc2nc3ccccc3s2)c1=O
[1]
  IkBa stabilization activation: inactive

## CN1CC[C@@]2(CCCN(C(=O)c3ccco3)C2)C1
[1]
  IkBa stabilization activation: inactive: 0.522% [at 11.4 µM, scaled: untreated 0%, proteasome inhibitor 100%]

## Nc1ccccc1C(=O)OCCc1ccccc1
[1]
  Potency: inconclusive: 31.6 µM [rising, partial curve]

## CN(C)c1ccc(N)cc1
[1]
  Potency: inconclusive: 12.6 µM [signal inhibitor, partial curve]

## CO[C@@H]1CC=C2CCN3CCC4=C(CC(=O)OC4)[C@]23C1
[1]
  IkBa stabilization activation: inactive

## CCOC(=O)c1c(N)n(Cc2ccc(OC)cc2)c2nc3ccccc3nc12
[1]
  IkBa stabilization activation: inactive

## COc1cc2c(cc1OC)-c1c(OC)c(OC)cc3c1C(C2)N(C)CC3 (configuration not stated)
[1]
  IkBa stabilization activation: inactive

## C=CCn1c(O)c(C(CC)=NCCCO)c(=O)[nH]c1=O
[1]
  IkBa stabilization activation: inactive

## OC1(CN2CCOCC2)C2CC3CC(C2)CC1C3 (configuration not stated)
[1]
  IkBa stabilization activation: inactive

## C=CCN1CC[C@@]23CCCC[C@@H]2[C@@H]1Cc1ccc(O)cc13
[1]
  IkBa stabilization activation: inactive

## O=C1C(Cl)=C(Cl)C(=O)C(Cl)=C1Cl
[1]
  IkBa stabilization activation: inconclusive: -0.945% [signal inhibitor]

## CCCCCC[C@H]1C(=O)O[C@H](C)[C@H](NC(=O)c2cccc(NC=O)c2O)C(=O)O[C@@H](C)[C@H]1OC(=O)CC(C)C
[1]
  IkBa stabilization activation: inconclusive: 8.52% [signal inhibitor] [at 25.6 µM, scaled: untreated 0%, proteasome inhibitor 100%]

## O=C1CCO1
[1]
  IkBa stabilization activation: inactive

## CC(=O)c1c(O)n(C)c(=S)n(-c2ccccc2)c1=O
[1]
  IkBa stabilization activation: inactive

## O=C1C2CCN(CC2)C1(CO)CO
[1]
  IkBa stabilization activation: inconclusive: -0.615% [signal inhibitor]

## C[C@]12Cc3cn4c(nc3C=C1CC[C@H]1[C@@H]2CC[C@@]2(C)[C@H]1CC[C@@]2(O)C#N)nc1ccccc14
[1]
  Potency: inconclusive: 39.8 µM [signal inhibitor, single point]

## COc1ccc(CN2CCN(C(=O)COc3cccc(C)c3)CC2)c(OC)c1
[1]
  IkBa stabilization activation: inconclusive: 7.06% [signal activator]

## CN[C@@H]1C[C@H](c2ccc(Cl)c(Cl)c2)c2ccccc21
[1]
  IkBa stabilization activation: inconclusive: 4.59% [signal inhibitor]

## N#C/C=C/C#N
[1]
  IkBa stabilization activation: inconclusive: 4.24% [signal inhibitor]

## O=C1C2(Cl)C3(Cl)C4(Cl)C(Cl)(Cl)C5(Cl)C3(Cl)C1(Cl)C5(Cl)C24Cl (configuration not stated)
[1]
  IkBa stabilization activation: inconclusive: -7.93% [signal inhibitor] and inconclusive: -3.7% [signal inhibitor]

## C[C@@]12CC[C@H](O)C[C@@H]1CC[C@H]1[C@@H]2C[C@@H](O)[C@]2(C)[C@@H](C3=CC(=O)OC3)CC[C@]12O
[1]
  IkBa stabilization activation: inconclusive: 1.95% [signal inhibitor] [at 25.6 µM, scaled: untreated 0%, proteasome inhibitor 100%]

## N#C/C(=C\c1ccc(O)c(O)c1)C(N)=S
[1]
  IkBa stabilization activation: inconclusive: 5.77% [signal inhibitor]
At 57.1 µM (top of the series), proteasome inhibitor 100%
  IkBa stabilization activation: inactive: 37.7%

## FC(Cl)(Cl)Cl
[1]
  IkBa stabilization activation: inactive

## COc1ccc(CCNC(=O)c2c(N)n(CCN3CCOCC3)c3nc4ccccc4nc23)cc1
[1]
  IkBa stabilization activation: inactive

## COC(=O)C(C)Oc1cc(C)cc2oc(=O)c3c(c12)CCCC3 (configuration not stated)
[1]
  IkBa stabilization activation: inactive

## O=S(=O)(O)F
[1]
  IkBa stabilization activation: inactive

## O=C(c1cc2ccccc2oc1=O)N1CCC2(CC1)OCCO2
[1]
  IkBa stabilization activation: inactive

## CCN1C[C@@]2(COC)[C@H](O)C[C@H](OC)[C@@]34[C@@H]5C[C@@]6(O)[C@H](OC(=O)c7ccccc7)[C@H]5[C@@](OC(C)=O)([C@H]([C@@H](OC)[C@H]23)[C@H]14)[C@H](O)[C@@H]6OC
[1]
  IkBa stabilization activation: inactive: 0.783% [at 11.4 µM, scaled: untreated 0%, proteasome inhibitor 100%]

## Clc1ccc(C(c2ccc(Cl)cc2)C(Cl)(Cl)Cl)cc1
[1]
  IkBa stabilization activation: inactive

## CCCCOC(=O)COc1cc(C)cc2oc(=O)c3c(c12)CCC3
[1]
  IkBa stabilization activation: inactive

## Cc1ccc(NC(=O)c2cccn(Cc3ccccc3C)c2=O)c(C)c1
[1]
  IkBa stabilization activation: inconclusive: 8.02% [signal inhibitor]

## O=C(O)[C@@H]1C[C@H]2C[C@@H](CP(=O)(O)O)CC[C@H]2CN1
[1]
  IkBa stabilization activation: inactive

## CCC(C)NC(=O)c1c(N)n(CC2CCCO2)c2nc3ccccc3nc12 (configuration not stated)
[1]
  IkBa stabilization activation: inconclusive: -1.65% [signal inhibitor]

## CC(C)OCCCNC(=O)c1c(N)n(Cc2cccs2)c2nc3ccccc3nc12
[1]
  IkBa stabilization activation: inconclusive: -5.33% [signal inhibitor]

## COc1cc2c(cc1O)CCN[C@H]2C
[1]
  IkBa stabilization activation: inactive: -0.649% [at 11.4 µM, scaled: untreated 0%, proteasome inhibitor 100%]

## COc1cccc(-n2c(/C=C/c3ccccc3O)nc3ccccc3c2=O)c1
[1]
  IkBa stabilization activation: inconclusive: 12.3% [signal inhibitor]

## Nc1c(C(=O)Nc2ccc(Cl)c(C(F)(F)F)c2)sc2nc3c(cc12)N1CCC3CC1
[1]
  IkBa stabilization activation: inconclusive: 2.91% [signal inhibitor]

## CN(C)CCc1nc2ccccc2c(=O)n1-c1ccccc1
[1]
  Potency: inconclusive: 20 µM [signal inhibitor, partial curve]

## CC(C)Cn1cc(C(=O)N2CCC3(CC2)OCCO3)c2c3ccccc3n(C)c2c1=O
[1]
  IkBa stabilization activation: inactive

## CCCCCc1nc2ccccc2c(=O)n1-c1ccc(C)cc1
[1]
  IkBa stabilization activation: inconclusive: 5.22% [signal inhibitor]

## Cc1ccccc1-n1nc(C)c2c1NC(=O)CSC2c1ccc(N(C)C)cc1 (configuration not stated)
[1]
  IkBa stabilization activation: inconclusive: 1.87% [signal inhibitor]

## Cc1ccc(NC(=O)CN2C(=O)CN=C(c3ccccc3)c3ccccc32)cc1
[1]
  IkBa stabilization activation: inconclusive: 0.768% [signal inhibitor]

## Cc1ccc(CN2C(=O)c3ccccc3Sc3ccc(C(=O)N4CCC5(CC4)OCCO5)cc32)cc1
[1]
  IkBa stabilization activation: inconclusive: 2.19% [signal inhibitor]

## C=CCN1CCc2cccc3c2[C@@H]1Cc1ccc(O)c(O)c1-3
[1]
  IkBa stabilization activation: inactive

## COc1ccc(-c2nc(CSCC(=O)N3CCC4(CC3)OCCO4)c(C)o2)cc1OC
[1]
  IkBa stabilization activation: inactive

## Cc1nc2cc(C(F)(F)F)ccc2n1C1CCN(Cc2nnnn2Cc2cccs2)CC1
[1]
  IkBa stabilization activation: inactive

## CC(C)(C)c1nc(N2CCN(C(=O)c3ccco3)CC2)c2nnn(Cc3ccccc3Cl)c2n1
[1]
  IkBa stabilization activation: inconclusive: 3.15% [signal inhibitor]

## O=C1NC(=O)[C@]2(Cc3ccccc3N3CCN(c4ccccc4)CC32)C(=O)N1Cc1ccccc1 (some centres not stated)
[1]
  IkBa stabilization activation: inconclusive: 15.9% [signal inhibitor]

## COc1cccc(OC)c1C1=NCC(=O)Nc2c1oc1ccc(Br)cc21
[1]
  Potency: inconclusive: 25.1 µM [signal activator, partial curve]

## N[C@@H](Cc1c[nH]c2ccccc12)c1nnc(SCc2ccc(F)cc2)o1
[1]
  IkBa stabilization activation: inconclusive: 5.58% [signal inhibitor]
